# Results reported in publication PMC4336329 (PLoS ONE, 2015).
# Among all 310,000 compounds or so, about 2,200 (0.71%) showed an effect of 50% or more. Effects have a minus sign here. This is one part of the list.
# Biological target: human ether-à-go-go-related gene (hERG) potassium channel (human, UniProt Q12809)
# Test: primary screen, population patch clamp on CHO cells stably expressing hERG
# human ether-à-go-go-related gene (hERG) potassium channel, sequence (Q12809 whole entry, looked up): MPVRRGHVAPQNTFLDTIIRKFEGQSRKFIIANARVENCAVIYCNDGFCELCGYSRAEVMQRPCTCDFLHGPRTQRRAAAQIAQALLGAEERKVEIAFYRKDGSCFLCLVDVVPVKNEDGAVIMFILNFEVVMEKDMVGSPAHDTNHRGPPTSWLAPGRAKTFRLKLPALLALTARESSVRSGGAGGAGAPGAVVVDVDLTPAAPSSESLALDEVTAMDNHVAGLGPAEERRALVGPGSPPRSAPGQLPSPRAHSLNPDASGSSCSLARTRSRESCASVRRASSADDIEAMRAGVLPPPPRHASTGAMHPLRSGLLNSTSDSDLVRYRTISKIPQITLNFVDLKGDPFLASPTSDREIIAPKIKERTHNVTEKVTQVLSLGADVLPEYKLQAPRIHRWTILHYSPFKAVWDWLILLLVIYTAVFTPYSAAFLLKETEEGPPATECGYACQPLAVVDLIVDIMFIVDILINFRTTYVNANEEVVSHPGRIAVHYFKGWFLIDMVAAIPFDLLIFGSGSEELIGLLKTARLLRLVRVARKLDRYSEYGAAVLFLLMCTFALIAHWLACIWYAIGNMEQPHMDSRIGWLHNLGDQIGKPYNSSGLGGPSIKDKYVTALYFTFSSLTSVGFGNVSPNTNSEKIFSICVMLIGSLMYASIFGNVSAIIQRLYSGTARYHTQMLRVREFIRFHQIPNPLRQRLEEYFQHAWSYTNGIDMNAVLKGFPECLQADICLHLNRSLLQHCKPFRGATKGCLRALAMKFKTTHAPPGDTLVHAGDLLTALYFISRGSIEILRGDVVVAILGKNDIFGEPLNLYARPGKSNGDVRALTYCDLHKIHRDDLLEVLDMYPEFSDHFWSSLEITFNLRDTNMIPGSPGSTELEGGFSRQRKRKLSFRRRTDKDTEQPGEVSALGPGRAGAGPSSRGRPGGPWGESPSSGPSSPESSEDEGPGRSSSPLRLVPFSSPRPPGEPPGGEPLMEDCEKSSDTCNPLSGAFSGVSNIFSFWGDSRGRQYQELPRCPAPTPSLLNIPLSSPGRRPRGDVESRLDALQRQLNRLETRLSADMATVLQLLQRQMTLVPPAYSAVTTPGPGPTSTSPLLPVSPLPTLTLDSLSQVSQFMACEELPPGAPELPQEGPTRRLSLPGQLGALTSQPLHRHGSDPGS
row,SMILES,"hERG current change (%, negative = inhibition) at 1uM [%]"
1,Cl.Fc1ccccc1Nc1nc(Cl)nc(Cl)n1,10.9
2,O=C(NCC(c1ccco1)N1CCN(c2ccccc2)CC1)C(=O)NC1CCCCC1 (stereo not shown),6.05
3,CCSc1nc2sc3c(c2c(=O)[nH]1)CC(C)(C)OC3,16.7
4,C=CCNc1cnn(-c2ccc(C)cc2)c(=O)c1Cl,-1.78
5,COc1ccc(C(=O)NCC2OCCc3ccccc32)cc1 (stereo not shown),3.13
6,O=C1CC(C(=O)N2CCN(c3ccccc3O)CC2)CN1Cc1ccccc1 (stereo not shown),-9.5
7,CCC(=O)Oc1ccc(-c2nc(-c3cccnc3)no2)cc1,19.9
8,Cn1c(Cc2cccs2)nnc1SCC(=O)N1CCCc2ccccc21,9.19
9,Cc1c(NC(=O)C(C)OC(=O)c2ccc([N+](=O)[O-])s2)c(=O)n(-c2ccccc2)n1C (stereo not shown),-19.3
10,Cc1ccc(S(=O)(=O)n2nc(-c3ccco3)nc2N)cc1,-4.62
11,COc1ccc(C)c2sc(NC(=O)CCS(=O)(=O)c3ccccc3)nc12,7.72
12,CNC(=S)NC1(C)CCS(=O)(=O)C1 (stereo not shown),8.8
13,CSc1nc2ccc(S(=O)(=O)N(C)C)cc2s1,5.4
14,O=C(CCc1nc2ccccc2c(=O)[nH]1)OCc1cccc(C(F)(F)F)c1,9.35
15,CN1CCN(CC(O)COc2ccc(Cl)cc2)CC1.Cl (stereo not shown),-5.93
16,Cn1cc(CN2CCC(C(O)c3cccs3)CC2)c(-c2ccccc2F)n1 (stereo not shown),6.56
17,NC(=O)C1CCN(C(=O)NC(=O)c2ccccc2)CC1,-5.92
18,CC(C)(C)c1ccc(C(=O)NC(=S)Nc2ccc(N3CCOCC3)cc2)cc1,9.39
19,Cc1c(/C=N/NC(=O)c2ccc(O)cc2)c2ccccn2c1C(=O)c1ccc(F)cc1,7.27
20,COc1ccccc1N1CCN(CCCNC(=O)Nc2ccccc2)CC1,-28.8
21,O=C(CCCN1C(=O)/C(=C\c2ccccc2)SC1=S)Nc1cccc(C(=O)O)c1,9.83
22,CN1CCN(CCCN(Cc2cccs2)C(=S)Nc2ccc(Cl)cc2)CC1,-31.9
23,COc1ccc([N+](=O)[O-])cc1NC(=O)CC(C)c1ccccc1 (stereo not shown),5.66
24,COc1cccc(CN(C)C(=O)c2ccc(S(=O)(=O)N3CCCC3)cc2)c1OC,0.226
25,CCOC(=O)CN1C(=O)N[C@@H](CCc2ccccc2)C(C(=O)OC)=C1C,8.17
